The values below come from the supplement of paper PMC11417369.

The other results are listed elsewhere or left out.

This experiment deals with PfSIP2 AP2 domain 1 (GST-tagged). The experiment can be described thus: gcPBM binding intensity (ln(normalized median fluorescence intensity)); higher = stronger DNA binding. A digest of the protocol: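 The highest Masliner-normalised natural-log median intensity across replicate spots of either probe orientation is reported as binding intensity. GST-tagged P. falciparum DNA-binding domains expressed in E. coli were applied for 1 h to an Agilent 4 × 180k array of primer-extended double-stranded 36-bp intergenic genomic probes plus negative controls, and bound protein was detected with Alexa488 anti-GST antibody and scanned at 488 nm.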
As to “AATATTTATAAATTTACACACACACGGGTGAACATA [CACACA_site6979]”, the “gcPBM binding intensity (ln)” value is 6.96.

As for “TTTAATTCCATAAGTAAACACACAAATGCCAAAATT [CACACA_site9049]”, the “gcPBM binding intensity (ln)” value worked out at 7.1.

With “ATTCTAAATTAAAATACACACATATATACATAATAT [CACACA_site2792]”, the “gcPBM binding intensity (ln)” value was 7.22.

Take “AAAAAAAATATATATATTAAAGTTTTAATTTTTATA [CACACA_negctrl_site497]”: the “gcPBM binding intensity (ln)” value worked out at 6.75.

In the case of “TTAGAATTTAGAGAAGTGCATATTAAGTTACGAATT [GTGCAC_site9861]”, the “gcPBM binding intensity (ln)” value amounted to 8.14.

Regarding “ATTATATATATATATAGTACTTTTTTTTTTTTTTTT [XGTACX_site8801]”, the “gcPBM binding intensity (ln)” value came out at 7.5.

Take “ATAATAATTTTATGCACACAGAAAAATACAAGGTTA [CACACA_site3510]”: the “gcPBM binding intensity (ln)” value turned out to be 7.46.

Take “TTATTGGTTATATAAAGTACATTTGAAATATAATTG [XGTACX_site6553]”: the “gcPBM binding intensity (ln)” value was determined as 7.08.

Consider “TTGCCTGACTTGTTCACACATATTTATGATATACAT [CACACA_site5783]”, for which the “gcPBM binding intensity (ln)” value was 6.89.

Take “TTTTCTTGGTATATGATTTATCCTAAATAAGTAAAT [CACACA_negctrl_site294]”: the “gcPBM binding intensity (ln)” value amounted to 6.84.

As to “TGTATTATAATATTATGTACTTATAAATTTTATATT [XGTACX_site6432]”, the “gcPBM binding intensity (ln)” value amounted to 7.1.

For the sequence “AATTTAAAGTTTTTTTTTTTTTTTTTTTTTTTTTTG [CACACA_negctrl_site1082]”, the “gcPBM binding intensity (ln)” value amounted to 6.78.

With “TGGGTGGTAAAAATGTGTACATAAAAAAATAATGTT [XGTACX_site2235]”, the “gcPBM binding intensity (ln)” value was found to be 7.48.

With “TCTCACATTCTTATGGGTACACATGAGAAATTATAA [XGTACX_site6799]”, the “gcPBM binding intensity (ln)” value was 7.01.

On to “ATATTATTATAAAGTGGTACAATAAATGGTATTATA [XGTACX_site391]”, for which the “gcPBM binding intensity (ln)” value is 7.15.

For “AATATACACCCGTGTACACAAATATTTACAAAACGT [CACACA_site4786]”, the “gcPBM binding intensity (ln)” value was found to be 7.34.

On to “GTTACACCAACAAACACACACACACCCACCCACAAA [CACACA_site2427]”, for which the “gcPBM binding intensity (ln)” value worked out at 7.44.

Turning to “AAAAGGAATGAAAATTCACACAACTATAAATACATA [CACACA_site5337]”, the “gcPBM binding intensity (ln)” value was found to be 6.62.

For the sequence “GGTATTACCTGTTTGTTATGTAGATGTTGCTAGGAT [GTGCAC_negctrl_site736]”, the “gcPBM binding intensity (ln)” value is 7.25.

“TAATTCTTTATAATAACACACATTCATATACAATAA [CACACA_site2499]”: the “gcPBM binding intensity (ln)” value came out at 6.92.

Take “ATACCAATAATATACATACACACATAAAGGTTTATA [CACACA_site314]”: the “gcPBM binding intensity (ln)” value is 7.25.

Regarding “AAGAAAAACTAAAGAGTTCTGTTCATATCTCTTTGG [TGCATGCA_negctrl_site549]”, the “gcPBM binding intensity (ln)” value amounted to 6.39.

For “TATATCAAATTCTAAACATGCACAAAAAACTTATAA [TGCATGCA_site510]”, the “gcPBM binding intensity (ln)” value came out at 8.61.

In the case of “AAGGAAAAACCATTCGCACACACACCGAATATATAA [CACACA_site8403]”, the “gcPBM binding intensity (ln)” value is 7.03.

On to “ACTTAAATAATACATACACACATGTACATACAGAAA [CACACA_site1595]”, for which the “gcPBM binding intensity (ln)” value amounted to 7.66.

Consider “TATTTATATAGACACACACACATATATTTATATTTT [CACACA_site7240]”, for which the “gcPBM binding intensity (ln)” value worked out at 7.04.

Turning to “TTTACATTTAATAAAAGTACTTATTTCATATACATA [XGTACX_site659]”, the “gcPBM binding intensity (ln)” value was 6.92.

For “AAAAAACAAAAACACACACACACATATATATATATA [CACACA_site3654]”, the “gcPBM binding intensity (ln)” value is 9.19.

In the case of “ATCACTAACATGTGTTGTACATAAAATTTGTTTGTT [XGTACX_site2207]”, the “gcPBM binding intensity (ln)” value was 6.98.

On to “TTAACTTTTATATAGTGTACAAATAAATGCATACAG [XGTACX_site5958]”, for which the “gcPBM binding intensity (ln)” value came to 7.43.

In the case of “TTATTATTTAACATGTGGACACAAAAATTTAAGGGT [XGTACX_site4638]”, the “gcPBM binding intensity (ln)” value came to 7.45.

For the sequence “TCTACTACTTAATGGAGTACTAGCTTCATAATATTA [XGTACX_site7030]”, the “gcPBM binding intensity (ln)” value was 6.91.

With “TGAACACAGACAAATACACACAAAAAAAATAAATAA [CACACA_site4298]”, the “gcPBM binding intensity (ln)” value amounted to 7.01.

For “TATTATGTATAAAGAAGTACTTTTTTTTTTTTTTTC [XGTACX_site201]”, the “gcPBM binding intensity (ln)” value is 6.76.

Turning to “GATTATTTAAAATATACATGCGCGCACATATGCATA [TGCATGCA_site630]”, the “gcPBM binding intensity (ln)” value stood at 8.39.

For “TGCATTTTCCTATTTGCATGCAATTAAAATATAGAA [TGCATGCA_site862]”, the “gcPBM binding intensity (ln)” value was determined as 7.16.

Regarding ATGTTTTAATGAGGTTTGCACTATATTTTAATGAAC, the “gcPBM binding intensity (ln)” value worked out at 8.64.

Consider “AACATATATACAGTAACACACACAAAAAAATATGAA [CACACA_site9323]”, for which the “gcPBM binding intensity (ln)” value amounted to 7.15.

With “TTTTACAATAACAATACACACTATAATATATATATA [CACACA_site4893]”, the “gcPBM binding intensity (ln)” value came to 8.76.

“CATATATATAAATACACACACACACCCCTTATAATT [CACACA_site4064]”: the “gcPBM binding intensity (ln)” value is 7.1.

With “TAGGAGCCGAAACACACACACAAAAAAAAAAAAAAA [CACACA_site1731]”, the “gcPBM binding intensity (ln)” value turned out to be 6.87.

As for “AAAAGAATTTGAAGTCGTACAATATCTATTATATGA [XGTACX_site8275]”, the “gcPBM binding intensity (ln)” value amounted to 6.93.

“ATATAATATACTTATTGTACTTATTTAAAATACTAA [XGTACX_site4266]”: the “gcPBM binding intensity (ln)” value was determined as 6.98.

In the case of “AAAAAATGGCTAGTTTGTACACAAAAGTTATTGCAT [XGTACX_site5381]”, the “gcPBM binding intensity (ln)” value is 6.72.
